The inconclusive results got no clear call from the source; some entries with a clear call stand among them for comparison. For some assays here: Potencies of inconclusive entries are left out as doubtful fits. Calls of active or inactive are those of the source. Calls come from the whole dose curve; as a rule, active = well fitted curve in the direction sought with a large enough effect; inconclusive = small, poorly fitted or top-dose-only effect, or another doubt; inactive = no such curve, though single readings can be large; an effect the other way counts as inactive or inconclusive.
Tests used:
[1] = target: Glutathione peroxidase 1 (Homo sapiens) (UniProt P07203); experiment: Primary qHTS Assay for Inhibitors of Recombinant Selenoprotein Glutathione Peroxidase 1 (GPX1) (AID 1845191); conditions: activity, negative = inhibition: at 48.8 µM (top of the series); note: potency is the fitted concentration of half-maximal effect; nearly all actives have a fitted effect of over 65% in size
Procedure, shortened: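 GR-coupled readout: NADPH consumption tracked by fluorescence, ex 340/em 450 nm, at t=0 and after 15 min at RT. Final mix 10 nM GPX1, 1 mM GSH, 0.5 mM CHP, 0.5 mM NADPH, 100 nM GR, 0.01% BSA, following 30 min enzyme–compound preincubation.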

[2] = Quantitative High-Throughput drug screen in 47 multiple myeloma cell lines against the NCATS MIPE library collection: ARP1_JJKsccF8 cell viability assay (AID 1918928; note: potency is the fitted concentration of half-maximal effect; nearly all actives have a fitted effect of over 40% in size); conditions: ARP1 myeloma cells viability, CellTiter-Glo ATP, 48 h; viability: at 45.8 µM (top of the series)
Procedure, shortened: (§1)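 Viability screen: myeloma cells (500/well) incubated 48 h at 37 °C, humidified 5% CO2, with pinned library compounds; CellTiter-Glo added, luminescence read; DMSO wells set 100%, medium-only wells 0%.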

[3] = Quantitative High-Throughput drug screen in 47 multiple myeloma cell lines against the NCATS MIPE library collection: ARD_JJKsccE7 cell viability assay (AID 1918929; note: potency is the fitted concentration of half-maximal effect)
Procedure, shortened: (§2)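 CellTiter-Glo ATP luminescence gave viability after 48 h compound treatment at 37C of 500 multiple myeloma cells per well. Normalisation used DMSO-only wells as 100% and media-only wells as 0% viability; primary qHTS of approved and investigational drugs.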

[4] = Quantitative High-Throughput drug screen in 47 multiple myeloma cell lines against the NCATS MIPE library collection: Karpas620_DSMZ cell viability assay (AID 1918959); note: nearly all actives have a fitted effect of over 30% in size; note: potency is the fitted concentration of half-maximal effect
Procedure, shortened: (§3)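 We plated 500 myeloma cells per well, pinned in MIPE 4.0 compounds, and incubated for 48 hours at 37C. ATP was then quantified with CellTiter-Glo, with DMSO and media-only wells defining 100% and 0%.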

[5] = Quantitative High-Throughput drug screen in 47 multiple myeloma cell lines against the NCATS MIPE library collection: KMM1_JCRB cell viability assay (AID 1918960); conditions: KMM1 myeloma viability, CellTiter-Glo ATP luminescence, 48 h; viability (% of DMSO): at 45.8 µM (top of the series); note: nearly all actives have a fitted effect of over 30% in size; note: potency is the fitted concentration of half-maximal effect
Procedure, shortened: as §1

[6] = Quantitative High-Throughput drug screen in 47 multiple myeloma cell lines against the NCATS MIPE library collection: Karpas417_ECACC cell viability assay (AID 1918961); conditions: Karpas417 myeloma viability, CellTiter-Glo ATP luminescence, 48 h; viability (% of DMSO): at 45.8 µM (top of the series) unless noted; note: potency is the fitted concentration of half-maximal effect
Procedure, shortened: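 Viability readout: CellTiter-Glo luminescence following 5 min room-temperature incubation with reagent. Prior exposure: 48 h, 37C, humidified 5% CO2, 500 cells per well.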

[7] = Quantitative High-Throughput drug screen in 47 multiple myeloma cell lines against the NCATS MIPE library collection: KHM11_PLB cell viability assay (AID 1918962); conditions: KHM11 myeloma cell viability, CellTiter-Glo ATP luminescence, 48 h; viability, % of DMSO control: at 45.8 µM (top of the series); note: nearly all actives have a fitted effect of over 35% in size; note: potency is the fitted concentration of half-maximal effect
Procedure, shortened: as §3

[8] = target: Phospholipid hydroperoxide glutathione peroxidase GPX4 (Homo sapiens) (UniProt P36969); experiment: Primary qHTS Assay for Inhibitors of Recombinant Selenoprotein Glutathione Peroxidase 4 (GPX4) (AID 1845192); note: nearly all actives have a fitted effect of over 65% in size; note: potency is the fitted concentration of half-maximal effect
Procedure, shortened: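 Steps: GPX4 plus compound, 30 min RT; add GR/GSH/NADPH master mix; start with cumene hydroperoxide; read 340/450 nm fluorescence at 0 and 15 min. Finals were 200 nM GPX4, 1 mM GSH, 0.5 mM CHP, 0.5 mM NADPH, 100 nM GR.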

[9] = Quantitative High-Throughput drug screen in 47 multiple myeloma cell lines against the NCATS MIPE library collection: Delta47_JCRB cell viability assay (AID 1918925; note: nearly all actives have a fitted effect of over 45% in size; note: potency is the fitted concentration of half-maximal effect); conditions: Delta47 myeloma viability, CellTiter-Glo ATP, 48 h; viability (% of DMSO): at 45.8 µM (top of the series) unless noted
Procedure, shortened: as §2

[10] = Quantitative High-Throughput drug screen in 47 multiple myeloma cell lines against the NCATS MIPE library collection: AMO1_DSMZ cell viability assay (AID 1918927; note: potency is the fitted concentration of half-maximal effect; nearly all actives have a fitted effect of over 30% in size)
Procedure, shortened: as §2

[11] = Quantitative High-Throughput drug screen in 47 multiple myeloma cell lines against the NCATS MIPE library collection: FR4_PLB cell viability assay (AID 1918924; note: potency is the fitted concentration of half-maximal effect; nearly all actives have a fitted effect of over 35% in size); conditions: FR4_PLB myeloma cells viability, CellTiter-Glo ATP, 48 h; viability (% of DMSO control): at 45.8 µM (top of the series)
Procedure, shortened: as §3

[12] = Quantitative High-Throughput drug screen in 47 multiple myeloma cell lines against the NCATS MIPE library collection: EJM_DSMZ cell viability assay (AID 1918926; note: potency is the fitted concentration of half-maximal effect; nearly all actives have a fitted effect of over 30% in size); conditions: EJM myeloma cell viability, CellTiter-Glo ATP, 48 h; viability, % of control: at 45.8 µM (top of the series)
Procedure, shortened: as §2

[13] = Primary fluorescence-based thiol-reactive (MSTI) qHTS assay for identification of artifact compounds. (AID 1845221);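 note: thiol-reactive compounds lower the probe fluorescence signal; nearly all actives have a fitted effect of over 65% in size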
Procedure, shortened: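 First, 4 uM MSTI in 2% DMSO/PBS pH 7.4 was dispensed; next, compounds were added; then plates sat 1 h at room temperature without light. Finally, emission at 598 nm was recorded.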
Tags give direction and shape of the fitted curve.

UniProt P36969, sequence (P36969 whole entry, looked up): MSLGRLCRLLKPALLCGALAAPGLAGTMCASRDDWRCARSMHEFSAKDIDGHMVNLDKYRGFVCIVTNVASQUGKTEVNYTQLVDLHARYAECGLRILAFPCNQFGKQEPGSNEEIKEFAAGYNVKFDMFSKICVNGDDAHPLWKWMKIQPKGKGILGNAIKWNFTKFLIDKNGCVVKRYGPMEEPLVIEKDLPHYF
UniProt P07203, sequence (P07203 whole entry, looked up): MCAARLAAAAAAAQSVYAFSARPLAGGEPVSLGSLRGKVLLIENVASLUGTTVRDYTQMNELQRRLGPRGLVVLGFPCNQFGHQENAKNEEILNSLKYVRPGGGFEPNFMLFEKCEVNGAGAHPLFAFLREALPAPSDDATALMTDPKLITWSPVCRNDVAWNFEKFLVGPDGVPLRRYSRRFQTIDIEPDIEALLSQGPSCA

Structure (SMILES)	Potency [1]	Potency [2]	Potency [3]	Potency [4]	Potency [5]	Potency [6]	Potency [7]	Potency [8]	Potency [9]	Potency [10]	Potency [11]	Potency [12]	viability (% of DMSO) [6]	Potency [13]
COc1ccccc1N1CCN(CC(O)COc2cccc3ccccc23)CC1 (stereo not given)	inconclusive [inhibitor, partial curve, poor fit]	active: 9.35 µM	inconclusive [cytotoxic, full curve, poor fit]	inactive	inactive	inconclusive [rising, full curve, poor fit]	inconclusive [rising, full curve, poor fit]							
CNC(=O)c1ccc2cc(C3(O)CCn4cncc43)ccc2c1 (stereo not given)			inactive	inconclusive [cytotoxic, partial curve, poor fit]		inconclusive [rising, partial curve, poor fit]	inactive	inactive	inactive	inconclusive [cytotoxic, full curve, poor fit]				
Cc1nc(Nc2ncc(C(=O)Nc3c(C)cccc3Cl)s2)cc(N2CCN(CCO)CC2)n1							inconclusive [cytotoxic, partial curve]	inconclusive [inhibitor, single point]	inconclusive [cytotoxic, partial curve]		inconclusive [cytotoxic, partial curve]	inconclusive [cytotoxic, partial curve]	inconclusive: 5.54% [cytotoxic]	
Cc1cccc2c1CC[C@H](CN1CCC(c3c(Cl)cccc3Cl)CC1)C[C@@H]2O		inconclusive [cytotoxic, partial curve]	inconclusive [cytotoxic, full curve]		inconclusive [cytotoxic, full curve]		active: 20.9 µM			inconclusive [cytotoxic, full curve]	inconclusive [cytotoxic, partial curve]	active: 18.7 µM		inactive
CCCn1c(=O)c2[nH]c(-c3cnn(Cc4cccc(C(F)(F)F)c4)c3)nc2n(CC)c1=O		inconclusive [cytotoxic, full curve]	inconclusive [cytotoxic, partial curve, poor fit]			inconclusive [rising, full curve, poor fit]	inactive		inactive		active: 5.9 µM			inactive

— PubChem BioAssay (NCATS)
